From PubChem BioAssay (NCATS)
Values joined by “and” are separate entries in the source; they are usually repeats but may differ in a detail not shown here. Identical values can stand only once. Inconclusive means that the source gave no clear call. Such entries were picked first, then a sample of the others. Where a call stands in place of a potency, no number is given. For some of these results: A potency beside an inconclusive call is a rough fit, not a confirmed value. Active and inactive are the calls of the source. Unless noted, calls follow the shape of the dose curve; as a rule, active = well fitted curve in the direction sought with a large enough effect; inconclusive = small, poorly fitted or top-dose-only effect, or another doubt; inactive = no such curve, though single readings can be large; an effect the other way counts as inactive or inconclusive.

Experiments:
[1] = molecular target: 3',5'-cyclic-AMP phosphodiesterase 4B (Homo sapiens) (UniProt Q07343); assay: qHTS Assay for Inhibitors of PDE-IV (AID 607; active = well fitted activation curve with a large enough effect in the main read-out, with a control signal flat, not every such curve was filed as active; inconclusive = small, poorly fitted or top-dose-only effect, or effect the other way, or a change in a side signal; also: potency is read from the fitted curve at half-maximal effect); conditions: HEK293 ACTOne CNG channel cells, membrane potential fluorescence; activation (PDE inhibition): at 22.9 µM (top of the series)
How it was run: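 The readout is membrane depolarisation from a cAMP-sensing CNG channel, detected with a potential dye at ex 535/em 590. Cells were HEK293-derived (endogenous PDE-IV) at 1000 cells/well, titrated up to 22.9 uM final.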

[2] = molecular target: Cytochrome P450 2C9 (Homo sapiens) (UniProt P11712); assay: qHTS Assay for Inhibitors and Substrates of Cytochrome P450 2C9 (AID 883); also: nearly all actives have a fitted effect of over 60% in size
How it was run: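 CYP2C9 deoxyluciferin hydroxylation, 37C, 60 min with NADPH regeneration; 10nM enzyme, 100uM Luciferin-H (KM). Glo detection reagent stopped reaction; luminescence normalized to sulphaphenazole (57uM) full inhibition.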

[3] = qHTS Assay for Identification of Small Molecule Antagonists for NFkB Signaling Pathway (AID 895; active = well fitted inhibition curve with a large enough effect in the signal ratio, with a control signal flat, not every such curve was filed as active; inconclusive = small, poorly fitted or top-dose-only effect, or effect the other way, or a change in a side signal; the % refers to the signal ratio); conditions: NFkB beta-lactamase reporter cells, FRET ratio 460/530, stimulated with 10 pM TNF alpha; activity change, negative = inhibition: at 38.3 µM (top of the series)
How it was run: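 NFkB-bla ME-180 cervical carcinoma cells with beta-lactamase reporter under NFkB response element; compounds added, then TNF alpha at 10 pM final (EC50), 5 h at 37 C. LiveBLAzer substrate 2 h, room temperature; emission 460/530 nm at 405 nm excitation.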

[4] = qHTS Assay for Identification of Small Molecule Antagonists for Thrombopoietin (TPO) Signaling Pathway (AID 918); conditions: TPO-dependent cell signaling reporter, antagonist mode; activity change, negative = inhibition: at 38.5 µM (top of the series); also: nearly all actives have a fitted effect of over 60% in size
How it was run: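 Antagonist mode at EC50 TPO (26 pM) in IL-3-free medium; murine Ba/F3 cells with human TPO receptor and GPIIb-promoter luciferase, 24 hrs at 37 C before luminescent detection.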

[5] = molecular target: Muscarinic acetylcholine receptor M1 (Rattus norvegicus) (UniProt P08482); assay: qHTS Assay for Antagonists of Acetylcholine Muscarinic M1 Receptor: Kinetic Measurement of Intracellular Calcium Response (AID 943); also: nearly all actives have a fitted effect of over 75% in size; also: potency is read from the fitted curve at half-maximal effect;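 as to activity change, negative = inhibition: Fluo-4 calcium signal as peak divided by basal fluorescence over 4 min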
How it was run: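 Quantitative HTS in CHO-M1 (rat receptor) cells: 10 min compound exposure ahead of 100 nM carbachol, Fluo-4 fluorescence followed 4 min, value expressed as peak-to-basal ratio.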

[6] = molecular target: DNA repair nuclease/redox regulator APEX1 (Homo sapiens) (UniProt P27695); assay: qHTS Validation Assay for Inhibitors of the Human Apurinic/apyrimidinic Endonuclease 1 (APE1) (AID 1705; also: potency is read from the fitted curve at half-maximal effect)
How it was run: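 Substrate: 50 nM final fluorophore/quencher THF-abasic duplex. Enzyme preincubated with compounds 15 min, RT. Progress derived from fluorescence difference, third minus first kinetic read.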

[7] = molecular target: Endonuclease 4 (Escherichia coli (strain K12)) (UniProt P0A6C1); assay: Counterscreen for APE1 Inhibitors: qHTS Validation Assay for Inhibitors of Endonuclease IV (AID 1708)
How it was run: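 Measured as reaction progress, the fluorescence gain between first and third kinetic reads after adding 50 nM TAMRA/BHQ-2 THF duplex to 2 nM enzyme preincubated 15 min with compound; 2 mM MgCl2, pH 7.5.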

[8] = qHTS for differential inhibitors of proliferation of Plasmodium falciparum line W2 (AID 1883); conditions: Potency: Plasmodium falciparum W2 proliferation inhibition;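 also: parasites grown with compound for 72 h before lysis and staining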
[9] = molecular target: RecQ-like DNA helicase BLM (Homo sapiens) (UniProt P54132); assay: qHTS Validation Assay for Inhibitors of Bloom's syndrome helicase (BLM) (AID 2364); also: potency is read from the fitted curve at half-maximal effect
How it was run: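 BLM 50 nM in 25 mM Tris-HCl pH 8.0, 5 mM NaCl, 2 mM MgCl2, 1 mM DTT, 0.01% Tween-20, 2.5 ug/ml poly(dI-dC); 15 min cpd preinc, RT. Start: 200 nM forked DNA + 2 mM ATP (final). TAMRA read, 2 reads 2 h apart.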

[10] = Quantitative high throughput screen for delayed death inhibitors of the malarial parasite plastid, 48 hour incubation (AID 488752); also: nearly all actives have a fitted effect of over 65% in size
How it was run: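 Cultures: infected erythrocytes at final 2% hematocrit and 0.1% parasitemia in Albumax-supplemented RPMI. Parasites express integrated firefly luciferase. Incubation with compound lasts 48 h before luminescent detection of remaining reporter activity.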

[11] = molecular target: D(1A) dopamine receptor (Homo sapiens) (UniProt P21728); assay: HTS Assay for Allosteric Agonists of the Human D1 Dopamine Receptor: Primary Screen for Agonists (AID 488981)
How it was run: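 Tetracycline-induced HEK293 T-REx cells force-coupled to calcium signalling were incubated overnight at 30 C and dye-loaded at room temperature. Calcium flux over 180 s after compound addition flagged agonists; a further 180 s read after EC20 dopamine flagged potentiators.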

[12] = molecular target: Peptidyl-prolyl cis-trans isomerase NIMA-interacting 1 (Homo sapiens) (UniProt Q13526); assay: qHTS Validation Assay to Find Inhibitors of Pin1 (AID 504536; active = well fitted inhibition curve with a large enough effect in the polarisation, with a control signal flat, not every such curve was filed as active; inconclusive = small, poorly fitted or top-dose-only effect, or effect the other way; the % refers to the polarisation)
How it was run: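 Fluorescence polarization competition: compounds (titration) displace HiFluor-488-labeled Pin1-1b peptide from Pin1 (0.3 uM final) in pH 7.5 HEPES buffer with DTT, 10 min at room temperature; %Activity normalized to no-enzyme wells, curves fitted.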

[13] = molecular target: Glutaminase kidney isoform, mitochondrial (Homo sapiens) (UniProt O94925); assay: qHTS for Inhibitors of Glutaminase (GLS): LOPAC Validation (AID 624146); also: potency is read from the fitted curve at half-maximal effect; nearly all actives have a fitted effect of over 60% in size
How it was run: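 Glutamate formation by hKGA was monitored fluorometrically using coupled glutamate oxidase, HRP and Amplex Red. Substrate was added as 1 mM L-glutamine solution; incubation was 30 min at RT after an initial read.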
Tags tell the direction and shape of the fitted curve.

UniProt P08482, sequence (P08482 whole entry, looked up): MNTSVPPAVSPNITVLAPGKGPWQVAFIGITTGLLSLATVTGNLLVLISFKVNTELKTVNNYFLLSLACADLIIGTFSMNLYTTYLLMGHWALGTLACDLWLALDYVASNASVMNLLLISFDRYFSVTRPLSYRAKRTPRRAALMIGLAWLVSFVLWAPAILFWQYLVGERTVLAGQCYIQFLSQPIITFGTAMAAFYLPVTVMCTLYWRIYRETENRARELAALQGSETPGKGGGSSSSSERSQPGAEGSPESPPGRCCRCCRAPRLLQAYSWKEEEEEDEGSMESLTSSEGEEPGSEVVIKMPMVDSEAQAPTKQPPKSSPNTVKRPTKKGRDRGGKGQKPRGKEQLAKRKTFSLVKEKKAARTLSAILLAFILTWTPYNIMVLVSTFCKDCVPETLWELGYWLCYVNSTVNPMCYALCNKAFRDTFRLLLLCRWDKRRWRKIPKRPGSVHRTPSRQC
UniProt Q13526, sequence (Q13526 whole entry, looked up): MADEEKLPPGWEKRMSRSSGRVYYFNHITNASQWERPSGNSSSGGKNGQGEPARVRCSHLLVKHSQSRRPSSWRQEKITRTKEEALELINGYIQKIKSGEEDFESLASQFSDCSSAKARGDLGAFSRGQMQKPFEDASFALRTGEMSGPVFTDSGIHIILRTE
UniProt P11712, sequence (P11712 whole entry, looked up): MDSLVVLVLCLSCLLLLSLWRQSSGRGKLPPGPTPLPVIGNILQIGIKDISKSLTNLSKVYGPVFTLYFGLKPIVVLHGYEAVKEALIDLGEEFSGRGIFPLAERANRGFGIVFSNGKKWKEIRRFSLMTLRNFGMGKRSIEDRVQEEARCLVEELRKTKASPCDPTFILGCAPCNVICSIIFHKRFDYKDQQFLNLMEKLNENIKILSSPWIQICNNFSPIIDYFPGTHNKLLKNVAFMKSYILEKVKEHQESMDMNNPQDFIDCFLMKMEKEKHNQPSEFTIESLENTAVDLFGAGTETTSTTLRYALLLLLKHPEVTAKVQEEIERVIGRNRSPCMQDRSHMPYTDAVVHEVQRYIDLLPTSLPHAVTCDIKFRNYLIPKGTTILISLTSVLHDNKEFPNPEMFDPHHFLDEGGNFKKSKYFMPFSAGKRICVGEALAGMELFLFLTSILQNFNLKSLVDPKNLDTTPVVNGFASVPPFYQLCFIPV
UniProt O94925, sequence (O94925 whole entry, looked up, canonical isoform): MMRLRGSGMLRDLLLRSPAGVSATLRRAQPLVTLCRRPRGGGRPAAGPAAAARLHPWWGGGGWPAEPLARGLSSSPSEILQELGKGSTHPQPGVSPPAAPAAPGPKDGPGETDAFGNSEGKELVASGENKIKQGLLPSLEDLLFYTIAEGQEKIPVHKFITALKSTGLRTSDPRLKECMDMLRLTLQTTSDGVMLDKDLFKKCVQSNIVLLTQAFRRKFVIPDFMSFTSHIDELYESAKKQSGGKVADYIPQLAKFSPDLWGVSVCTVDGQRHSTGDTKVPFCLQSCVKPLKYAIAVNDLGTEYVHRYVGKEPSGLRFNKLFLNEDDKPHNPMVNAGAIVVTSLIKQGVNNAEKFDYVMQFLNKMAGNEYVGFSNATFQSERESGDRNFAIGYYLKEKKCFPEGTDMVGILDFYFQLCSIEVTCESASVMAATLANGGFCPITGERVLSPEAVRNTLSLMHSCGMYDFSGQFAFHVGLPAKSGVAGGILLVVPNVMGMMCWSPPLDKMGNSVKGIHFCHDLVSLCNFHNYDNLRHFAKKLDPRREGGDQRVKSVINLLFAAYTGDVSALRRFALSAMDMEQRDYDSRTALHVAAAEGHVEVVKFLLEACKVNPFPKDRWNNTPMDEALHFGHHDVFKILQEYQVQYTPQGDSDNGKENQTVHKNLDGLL
UniProt P27695, sequence (P27695 whole entry, looked up): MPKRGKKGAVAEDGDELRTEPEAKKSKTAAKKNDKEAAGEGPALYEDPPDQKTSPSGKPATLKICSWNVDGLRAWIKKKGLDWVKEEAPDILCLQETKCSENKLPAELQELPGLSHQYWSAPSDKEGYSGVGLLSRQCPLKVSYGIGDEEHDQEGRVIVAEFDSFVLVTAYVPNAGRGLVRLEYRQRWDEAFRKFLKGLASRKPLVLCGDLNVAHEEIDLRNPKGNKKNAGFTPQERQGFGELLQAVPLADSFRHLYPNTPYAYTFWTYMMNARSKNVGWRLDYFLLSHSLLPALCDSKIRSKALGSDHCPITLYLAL
UniProt P21728, sequence (P21728 whole entry, looked up): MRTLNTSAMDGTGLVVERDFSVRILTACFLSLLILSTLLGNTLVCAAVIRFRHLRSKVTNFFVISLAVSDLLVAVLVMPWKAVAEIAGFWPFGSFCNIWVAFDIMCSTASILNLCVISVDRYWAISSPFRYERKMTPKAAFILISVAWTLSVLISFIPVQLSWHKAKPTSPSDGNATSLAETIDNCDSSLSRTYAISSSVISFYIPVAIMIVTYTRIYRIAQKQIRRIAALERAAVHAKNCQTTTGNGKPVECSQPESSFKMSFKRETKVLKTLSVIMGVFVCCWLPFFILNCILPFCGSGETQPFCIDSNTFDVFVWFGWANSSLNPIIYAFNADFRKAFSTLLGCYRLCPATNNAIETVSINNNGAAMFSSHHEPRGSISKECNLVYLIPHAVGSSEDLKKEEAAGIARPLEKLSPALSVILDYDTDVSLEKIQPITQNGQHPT
UniProt Q07343, sequence (Q07343 whole entry, looked up): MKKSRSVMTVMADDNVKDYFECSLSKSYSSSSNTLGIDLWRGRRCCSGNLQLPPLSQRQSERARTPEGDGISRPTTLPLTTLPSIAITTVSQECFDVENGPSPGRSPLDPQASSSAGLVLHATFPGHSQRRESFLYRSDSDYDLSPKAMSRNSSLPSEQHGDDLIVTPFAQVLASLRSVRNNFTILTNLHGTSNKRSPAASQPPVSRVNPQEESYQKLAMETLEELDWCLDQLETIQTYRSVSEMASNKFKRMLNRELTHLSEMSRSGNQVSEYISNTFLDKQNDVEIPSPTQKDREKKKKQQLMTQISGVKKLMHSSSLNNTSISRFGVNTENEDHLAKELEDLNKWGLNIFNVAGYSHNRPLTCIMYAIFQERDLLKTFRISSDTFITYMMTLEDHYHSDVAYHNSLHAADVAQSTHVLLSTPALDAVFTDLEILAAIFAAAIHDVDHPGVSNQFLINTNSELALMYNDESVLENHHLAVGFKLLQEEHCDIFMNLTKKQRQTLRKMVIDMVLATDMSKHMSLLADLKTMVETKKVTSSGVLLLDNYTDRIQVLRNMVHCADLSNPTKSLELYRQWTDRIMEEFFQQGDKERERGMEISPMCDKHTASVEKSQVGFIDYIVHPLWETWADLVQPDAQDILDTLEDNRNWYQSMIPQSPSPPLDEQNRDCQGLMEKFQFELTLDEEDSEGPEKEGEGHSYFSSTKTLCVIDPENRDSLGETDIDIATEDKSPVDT
UniProt P54132, sequence (P54132 whole entry, looked up): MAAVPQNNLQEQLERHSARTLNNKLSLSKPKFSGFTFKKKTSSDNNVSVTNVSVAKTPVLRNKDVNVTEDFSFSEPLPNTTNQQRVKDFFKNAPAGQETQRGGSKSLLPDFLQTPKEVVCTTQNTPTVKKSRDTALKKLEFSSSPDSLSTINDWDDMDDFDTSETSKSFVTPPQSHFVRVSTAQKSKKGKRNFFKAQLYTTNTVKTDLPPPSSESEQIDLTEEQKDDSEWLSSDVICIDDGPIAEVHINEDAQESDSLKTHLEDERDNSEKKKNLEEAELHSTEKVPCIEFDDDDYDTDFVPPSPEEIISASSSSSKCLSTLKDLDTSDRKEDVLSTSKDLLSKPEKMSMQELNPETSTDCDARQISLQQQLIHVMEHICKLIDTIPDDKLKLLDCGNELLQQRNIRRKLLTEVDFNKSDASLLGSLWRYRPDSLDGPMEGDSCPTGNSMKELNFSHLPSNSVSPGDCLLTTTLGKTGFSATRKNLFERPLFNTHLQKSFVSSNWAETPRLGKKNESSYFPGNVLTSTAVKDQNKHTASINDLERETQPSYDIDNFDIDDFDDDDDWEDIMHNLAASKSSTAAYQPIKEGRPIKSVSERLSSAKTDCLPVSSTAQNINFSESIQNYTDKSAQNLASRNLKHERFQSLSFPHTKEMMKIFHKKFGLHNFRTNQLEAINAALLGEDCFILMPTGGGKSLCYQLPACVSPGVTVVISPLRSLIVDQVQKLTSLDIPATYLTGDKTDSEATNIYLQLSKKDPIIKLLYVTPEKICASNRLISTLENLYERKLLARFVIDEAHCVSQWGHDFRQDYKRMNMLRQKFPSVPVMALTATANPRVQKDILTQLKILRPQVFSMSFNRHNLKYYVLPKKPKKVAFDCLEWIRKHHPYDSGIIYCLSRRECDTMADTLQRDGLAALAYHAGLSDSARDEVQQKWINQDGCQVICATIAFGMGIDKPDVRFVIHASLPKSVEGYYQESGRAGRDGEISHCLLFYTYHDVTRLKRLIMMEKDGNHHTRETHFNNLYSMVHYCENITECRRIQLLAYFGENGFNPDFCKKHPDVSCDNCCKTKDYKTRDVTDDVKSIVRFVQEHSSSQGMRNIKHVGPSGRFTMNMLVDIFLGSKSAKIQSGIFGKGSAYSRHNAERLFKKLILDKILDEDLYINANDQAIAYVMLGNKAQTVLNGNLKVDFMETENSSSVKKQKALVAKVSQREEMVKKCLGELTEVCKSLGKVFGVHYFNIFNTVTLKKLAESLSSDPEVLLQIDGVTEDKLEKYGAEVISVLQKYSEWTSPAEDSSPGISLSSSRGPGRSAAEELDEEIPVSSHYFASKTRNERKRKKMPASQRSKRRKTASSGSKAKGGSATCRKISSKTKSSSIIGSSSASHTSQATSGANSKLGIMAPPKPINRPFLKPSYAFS

## NC/C=C\C(=O)O
[1]
  Potency: inconclusive: 19 µM [inhibitor, single point]
[2]
  Potency: inactive
[3]
  Potency: inactive
[4]
  activity change, negative = inhibition: inconclusive: 4.29% [phenotype inactive] and inconclusive: -19.1% [phenotype inactive]
[5]
  Potency: inactive and inconclusive: 28.2 µM [inhibitor, partial curve, poor fit]
[6]
  Potency: inconclusive: 31.6 µM [inhibitor, partial curve]
[7]
  Potency: inactive
[8]
  Potency: inactive
[9]
  Potency: inconclusive: 11.2 µM [inhibitor, partial curve]
[10]
  Potency: inactive
[11]
  Potency: inactive
[12]
  Potency: inactive
[13]
  Potency: inconclusive: 2.82 µM [inhibitor, full curve, poor fit]
